In the supplement of paper PMC11417369:
The list shows a part of the results.

System: PfHDP1 homeodomain (GST-tagged)
Assay: gcPBM binding intensity (ln(normalized median fluorescence intensity)); higher = stronger DNA binding
Procedure, shortened: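 Binding intensity is the highest Masliner-normalised natural-log median intensity over replicate spots in either probe orientation. To obtain it, GST-tagged P. falciparum DNA-binding domains made in E. coli were incubated for 1 h on an Agilent 4 × 180k array of primer-extended double-stranded 36-bp intergenic genomic probes plus negative controls. Detection used Alexa488 anti-GST antibody with scanning at 488 nm.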

Sequence	gcPBM binding intensity (ln)
TGTAATCTGGAGAAGAGTACACAGTATCTGGTAGCT [XGTACX_site4935]	5.93
ATATATAATATAATATGTACATATAATCAATCCTGT [XGTACX_site8694]	6.72
ATTTAGTATTCGAAACGTACACATATATATATATAT [XGTACX_site3910]	9.37
ATAATACATACATACATACACACATATATATATATT [CACACA_site3576]	7.1
TATTGTATTTCATATTGTACTAAAAAAAAAAAAAAG [XGTACX_site6694]	6.24
AAAAAAAAAAAAAAAACACACATACACATATATTTT [CACACA_site7768]	6.8
TATATTATTTATAGTAGTACATAAAATATAAATATT [XGTACX_site4417]	6.2
TAAAAAAAAAAAAAAACACACATATAAATATTTATA [CACACA_site6702]	6.19
AACAAAGTCATACATACATACATATATATATATATA [GTGCAC_negctrl_site632]	9.26
TCAATAATAAAAAACACACACAAAAAAAAATAATTA [CACACA_site2798]	6.73
CATGAATCCTAATAATGTACATAAGAATTCATAATG [XGTACX_site1607]	6.23
ATAAGCATACATATTACACACATATAATATATATAT [CACACA_site2487]	8.09
TACATATATATATATGAACACACAAAAAGAATATTT [CACACA_site8421]	6.76
TTTTATGAGAAACACACACACAAAAAAAAAAAAAAA [CACACA_site4129]	6.28
TCTTACTAATTTATGGGGACTTATCACCTATTCAGT [CACACA_negctrl_site652]	6.36
AGTGGATAAATTTATTCACACATTTTTTTTTTTTTT [CACACA_site5914]	6.35
ATTTTTTTTTCTTGTACACACTATTTTATAATTTTA [CACACA_site6102]	7.29
TTAGCTTATCATTACTGTACTTTATTCATATATATG [XGTACX_site8008]	6.5
TAAACATTCTTATATAGTACCCATATTAAAATATAC [XGTACX_site8014]	6.21
ACATACATATATTTATGTACATATATATTTATGATT [XGTACX_site6485]	6.59
AATTTATATTTATGTGCATGTAATAACTGTATATAA [TGCATGCA_site349]	8.39
AAAAAAAGATTATACACACACATATATAAACATACA [CACACA_site4553]	6.83

Sequence	gcPBM binding intensity (ln)
TTTTGGTGTATAGTATTAATATAAAATAATTATATT [CACACA_negctrl_site47]	6.8
AAATTAAAATAAAATAGTACATATATTTATATTTTT [XGTACX_site1687]	6.01
ATGAAAAAAAAAAAAAAAAAAAAAAAAAAAAAAATA [CACACA_negctrl_site1083]	5.72
ATTTTTTTGTATATATATGACTGGGGATATAATCAA [GTGCAC_negctrl_site274]	6.92
TATTATTTTTCATATGCATGCAAAAATAAAAAAATA [TGCATGCA_site350]	6.71
TATAAAAAAAAAAAAAAAAAAAAAAATATATATATA [CACACA_negctrl_site817]	8.92
AAAAAAAAAAAAAATTGTACTTAAATATATATATAT [XGTACX_site7604]	8.7
AAATATATAAAAGTATGTACATATGAAAAATATATA [XGTACX_site6165]	7.09
TTATATAACATAACGATGTTTCAAAACATATTGTAT [CACACA_negctrl_site997]	6.42
TTATAAAGAATTAGGAGTACAAATGCATATATAATA [XGTACX_site6580]	7.05
TGTGTATAAAAAAAGTGTACACAAAGTAAGACTTTA [XGTACX_site3759]	7.02
AGCAACTAAAAAGGATACCCCATTAAAAAAAAATTA [XGTACX_negctrl_site489]	6.21
TACCAAAAAACGGCACGCATATGTATAAGAATATGT [XGTACX_negctrl_site470]	6.75
TATAAATATTATAATTGTACATATTATAAAAATTTT [XGTACX_site2719]	6.41
TTTAAAATTTAATTTTGTACATATACCAATTTTATT [XGTACX_site448]	6.39
AATATATAATCAGATGAATTTTTTTTTTTTTTTTCA [CACACA_negctrl_site534]	5.84
ATATAATATATGTTATGTACATAGTTTTTATTGTTC [XGTACX_site7438]	6.61
ATATAATGTTAGGGTAGAGGAAGTAACTAATATAAA [CACACA_negctrl_site1153]	6.78
AATTTTTTATTCTTTGCATGTCATCATATATAATAT [TGCATGCA_site549]	6.96
ATATAAATATGAAAAAGTACAAGCCATCAAGAAATC [XGTACX_site8140]	6.72
AATTAGCATAAATGGGTGCTACACAAAAATGCATGT [GTGCAC_site9640]	6.65
ATTTTTTTACTGGATCCATATTTGCTTTTTTATTTA [CACACA_negctrl_site1108]	7.06

Sequence	gcPBM binding intensity (ln)
GTGGATATATGTATATGTACATATGTATGTATATAT [XGTACX_site2412]	6.7
TCTCTTTTTCGTTCATGTACAAATAAATAAAAATAT [XGTACX_site6558]	6.64
GTATATTTTATTTTATGTACATATTCATTTTTTATT [XGTACX_site561]	7.26
TTATATATATGACTTTGTACATATACATATTTTTTA [XGTACX_site4669]	6
TATTATATATATGCACGTACAAAAATAATAAAGGTA [XGTACX_site3506]	8.49
TTAATTAAGAAACACACACACATATATATATATATT [CACACA_site2290]	6.88
TTTTTAATTTACTGTCATAGGTACCTTAACTTATCA [CACACA_negctrl_site1664]	6.21
ATATAATAAATGTCATGTACATACAACATTTTAACT [XGTACX_site7517]	6.39
TATTAATAATTTTCATGTACATATGTATTTGTAATA [XGTACX_site858]	6.47
TGAATAAAGAAACACACACACATATATATATATGTA [CACACA_site17]	6.71
TACATATACATATTGTGTACATAATAATTATTTATA [XGTACX_site7884]	6.65
TACTTATGTTCGCACACATGCAAATTAAAAAAAAAA [TGCATGCA_site1023]	8.2
TTTTAAATAAAATATTGTACATTAAAATTGTAATAT [XGTACX_site2128]	6.48
ATTATAAATATGTATATACACACTTTTAATATTCAT [CACACA_site9367]	6.7
TAAGATAAATGATAAAGTACTTTTTTTTTTTAAATA [XGTACX_site2326]	5.69
AAGCAAACATATTAATGTACACACACCCACACACAA [XGTACX_site5806]	6.96
AATTTTAAAAATATAACACACATATATAAAATATAT [CACACA_site3610]	6.4
AATGAAGAAAAAAAAAGTACATTATTTTTAAAACTT [XGTACX_site563]	6.51
CAAAAATAAACTATAGTACACACTTATTATTATGAA [CACACA_site2702]	6.33
ATTTGGCATAGACACACACACACACGCACGCACATA [CACACA_site6424]	7.9
TATGTTCATCATAGCACACATATATAAATTACAACA [CACACA_site3533]	6.65
ATTGTAATCATATGAAGTACTAATATATATTTTAAT [XGTACX_site8350]	6.72

Sequence	gcPBM binding intensity (ln)
TTTTTATGTAGAATTTTTTTATTTTTTCAAAATGGA [CACACA_negctrl_site166]	5.94
ATTTATAAAATTAATAGTACATATATTTATATATAT [XGTACX_site4173]	6.49
TATTGCACAAAATAATTTTATTATACTTTATGTTAG [TGCATGCA_negctrl_site574]	10.8
TGTATTACGAAAAAATGTACAGAAAAAGAAACAAAA [XGTACX_site2777]	7.42
TGGGATAGATCATTTACACACACAAAAAAAAAAAAA [CACACA_site2140]	6.6
TTTGTCATAAGCAATGCATGTAAGTTTCTGACATTA [TGCATGCA_site1007]	6.22
TAAATAAAAAAACACACACACATATATATATATATA [CACACA_site2269]	9.22
ATAAAAAAATAAAACACACACATATATATTATATAT [CACACA_site2810]	6.85
AATGCATTGATTGCATTCAAAAAAAAAAAAAAAAAA [XGTACX_negctrl_site597]	6.34
AATCATAAAGAACATATAATATATATATATATATAT [CACACA_negctrl_site316]	9.08
AATAAGATATCTACAACACACATTTAATTTTTTTTT [CACACA_site1641]	6.31
AATTGTCAGAGAATATGTACTTAAGTATTTATTGTT [XGTACX_site1947]	6.47
AATATATGCTTTCGTTATATTAAATTCAATTTAATG [GTGCAC_negctrl_site76]	6.37
AACAACTATTAATTTACACACATGTATTTATTTTAC [CACACA_site5683]	6.69
TCTTATATATTTATTTGTACATATATATATATATAT [XGTACX_site7214]	9.35
AAGGAATGCATATAGGTGCTACACATAAAAATAAAA	7.22
TTAAGTAGTACATACACACACATATACAAAAAGAAA [CACACA_site3972]	7.2
TACTTTTTTCCTATTATGTTTCTTATTTTTATAAAT [XGTACX_negctrl_site561]	7.26
AAATTTTATGTATAATGTACACATAAATTTTTCTTT [XGTACX_site7266]	6.67
ATATAATAATAATATTGTACAATAAAAAATATATAT [XGTACX_site7350]	6.95
ATACAGATAGGATGCACACATAATTCAAATACAATA [CACACA_site4531]	8.32
